{
  "source": "PubChem BioAssay AID1460",
  "about": "(National Center for Advancing Translational Sciences (NCATS), 2008)",
  "note": "The whole screen tested about 270,000 compounds, of which about 5,800 (2.1%) were called active. The shares of active, inactive and inconclusive entries below differ from those in the screen. The call rests on the fitted dose curve; in most records, active means well fitted inhibition curve with a large enough effect; inconclusive means small, poorly fitted or top-dose-only effect; inactive means flat fitted curve, though single readings scatter. Potencies beside an inconclusive call are fits to weak or partial responses and may not hold up. On the % scale 0 is the no-effect control and ±100 the full control effect; potency means the concentration at half of the fitted maximal effect; tags describe the fitted curve by direction and shape.",
  "data": [
    {"target": "Microtubule-associated protein tau (Homo sapiens) (UniProt P10636)", "sequence (P10636 whole entry, looked up, the tested form may be a part)": "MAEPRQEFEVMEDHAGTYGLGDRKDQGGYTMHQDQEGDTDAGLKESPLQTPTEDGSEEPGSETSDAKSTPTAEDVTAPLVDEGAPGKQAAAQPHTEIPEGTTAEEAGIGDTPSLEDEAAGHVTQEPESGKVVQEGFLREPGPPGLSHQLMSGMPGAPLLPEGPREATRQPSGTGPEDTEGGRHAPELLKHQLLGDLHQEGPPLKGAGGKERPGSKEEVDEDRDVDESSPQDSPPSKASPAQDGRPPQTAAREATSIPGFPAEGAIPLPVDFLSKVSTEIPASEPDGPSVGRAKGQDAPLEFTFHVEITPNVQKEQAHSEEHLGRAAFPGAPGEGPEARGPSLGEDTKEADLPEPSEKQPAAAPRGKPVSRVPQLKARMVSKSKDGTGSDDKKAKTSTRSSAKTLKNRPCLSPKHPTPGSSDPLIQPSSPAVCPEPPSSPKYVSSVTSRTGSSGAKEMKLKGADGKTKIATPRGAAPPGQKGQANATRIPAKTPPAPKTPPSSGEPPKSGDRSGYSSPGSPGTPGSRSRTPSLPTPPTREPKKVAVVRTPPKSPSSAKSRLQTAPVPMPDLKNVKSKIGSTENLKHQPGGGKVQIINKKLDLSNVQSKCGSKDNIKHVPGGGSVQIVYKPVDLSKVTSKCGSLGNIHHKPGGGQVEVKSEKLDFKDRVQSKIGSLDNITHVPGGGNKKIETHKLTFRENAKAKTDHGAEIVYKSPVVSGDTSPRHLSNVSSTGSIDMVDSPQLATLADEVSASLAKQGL", "test": "qHTS for Inhibitors of Tau Fibril Formation, Thioflavin T Binding; further: nearly all actives have a fitted effect of over 55% in size", "conditions": "recombinant tau K18 P301L (four-repeat tau fragment), heparin-induced fibrillization, ThT fluorescence; series mostly up to 57.4 µM; activity, negative = inhibition: at the top concentration", "summary_of_the_method": "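Heparin-induced (20 uM) aggregation of recombinant human K18 P301L tau, 15 uM unlabeled with 0.24 uM labeled, pH 7 acetate buffer, 6 hr at 37 C with compound. Fibrils quantified by 30 uM ThT fluorescence after 1 hr ambient incubation.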", "values": [
      {"smiles": "COc1ccc(/C=N\\NC(=O)/C(=C\\Nc2nccc(C)n2)NC(=O)c2ccccc2)cc1", "Potency": "inconclusive: 14.1 µM [inhibitor, single point]"},
      {"smiles": "CCC1CSC(Nc2ccc(C(=O)/C=C/c3cccc(C)c3)cc2)=N1", "note": "(centres undefined)", "Potency": "inconclusive: 20 µM [inhibitor, partial curve]"},
      {"smiles": "COc1ccc(Nc2nc(N)c([N+](=O)[O-])c(N3CCOCC3)n2)cc1", "Potency": "inconclusive: 15.8 µM [inhibitor, partial curve]"},
      {"smiles": "Cc1cc(C)c(S(=O)(=O)N(CC(=O)NCc2cccnc2)C2CCCCC2)c(C)c1", "Potency": "inconclusive: 10 µM [inhibitor, partial curve]"},
      {"smiles": "Cc1cc(C)n2nc(SCc3nnc(-c4ccc(F)cc4)o3)nc2n1", "activity, negative = inhibition": "inactive: -4.99%"},
      {"smiles": "COc1cccc(C=Nc2ccc3c(c2)OCCO3)c1O", "Potency": "inconclusive: 20 µM [inhibitor, partial curve, poor fit]"},
      {"smiles": "COc1ccccc1Nc1nc(NCC(C)C)nc(N)c1[N+](=O)[O-]", "Potency": "inconclusive: 17.8 µM [inhibitor, partial curve]"},
      {"smiles": "CCOc1cccc(C(=O)Nc2cccc(-c3nc4ncccc4o3)c2C)c1", "Potency": "inconclusive: 35.5 µM [inhibitor, single point]"},
      {"smiles": "CC(C)C(=O)NC(c1cccs1)c1cc([N+](=O)[O-])c2cccnc2c1O", "note": "(centres undefined)", "Potency": "active: 14.1 µM"},
      {"smiles": "COC(=O)c1c(-c2cccs2)csc1NC(=O)COc1ccccc1", "Potency": "active: 20 µM"},
      {"smiles": "C[N+](C)(C)c1ccc(/C=N/Nc2nc(Cl)c(C#N)c(Cl)c2Cl)cc1", "Potency": "inconclusive: 14.1 µM [inhibitor, partial curve]"},
      {"smiles": "CCOc1cc(/C=C/c2cc(C(F)(F)F)[nH]c(=O)n2)ccc1O", "Potency": "active: 14.1 µM"},
      {"smiles": "CCOc1ccc(N=C/C=C/c2ccccc2)c(O)c1", "Potency": "active: 4.47 µM"},
      {"smiles": "CCOC(=O)C1CCN(C(=O)c2ccc3c(SCC(=O)O)c4c(nc3c2)CCCC4)CC1", "Potency": "inconclusive: 25.1 µM [inhibitor, single point]"},
      {"smiles": "O=C(Nc1ccccc1)c1ccccc1NS(=O)(=O)c1ccc(Cl)s1", "Potency": "inconclusive: 22.4 µM [inhibitor, single point]"},
      {"smiles": "O=C(Cc1cc(=O)[nH][nH]1)N/N=C/C(Cl)=C/c1ccccc1", "Potency": "active: 2.82 µM"},
      {"smiles": "CCOC(=O)c1snc(-c2ccc(F)cc2)c1N", "Potency": "inconclusive: 28.2 µM [inhibitor, partial curve]"},
      {"smiles": "OC(COc1ccc2ccccc2c1Br)Cn1cnc(-c2ccccc2)c1", "note": "(centres undefined)", "Potency": "inconclusive: 4.47 µM [inhibitor, partial curve]"},
      {"smiles": "O=C(NCCCN1CCCCC1)c1ccc2c(c1)sc1nc(-c3ccc(F)cc3)cn12", "Potency": "inconclusive: 25.1 µM [inhibitor, single point]"},
      {"smiles": "C=C(C)C1CC=C(C)/C(=N/NC(=S)Nc2ccccc2)C1", "note": "(centres undefined)", "Potency": "inconclusive: 4.47 µM [inhibitor, partial curve, poor fit]"},
      {"smiles": "COc1cccc(/C=N/NC(=O)c2ccoc2C)c1", "activity, negative = inhibition": "inactive: -20.4%"},
      {"smiles": "CCOC(=O)c1ccc(NC(=O)CS(=O)(=O)c2cn(CC)c3ccccc23)cc1", "Potency": "inconclusive: 14.1 µM [inhibitor, partial curve, poor fit]"},
      {"smiles": "CCc1ccc(-c2cn3nc(C)c(C)nc3n2)cc1", "Potency": "inconclusive: 7.94 µM [inhibitor, partial curve]"},
      {"smiles": "O=C(Oc1ccc(-c2nc(-c3ccccn3)no2)cc1)c1ccccc1", "Potency": "inconclusive: 5.62 µM [inhibitor, partial curve]"},
      {"smiles": "CCCCN=C1N/C(=C\\c2ccco2)C(=O)N1c1ccccc1", "Potency": "inconclusive: 28.2 µM [inhibitor, single point]"},
      {"smiles": "CCn1c(O)c(N=Nc2ccc(Cl)c(C(=O)O)c2)c2ccccc21", "Potency": "active: 4.47 µM"},
      {"smiles": "CCOC(=O)c1sc(-c2ccccc2)cc1N", "Potency": "inconclusive: 22.4 µM [inhibitor, partial curve]"},
      {"smiles": "Cc1ccc(/C=C/C(=O)NCc2ccccn2)o1", "Potency": "inconclusive: 31.6 µM [inhibitor, single point]"},
      {"smiles": "O=C(Nc1ccc(F)c(Cl)c1)N1CCCC1", "Potency": "inconclusive: 0.0794 µM [activator, full curve, poor fit]"},
      {"smiles": "CCc1cccc(C)c1NC(=O)c1nc2ccccc2nc1N1CCCCC1", "activity, negative = inhibition": "inactive: -13.3%"},
      {"smiles": "COc1ccc2c(Sc3ccccc3)c(C(=O)N3CCC(C)CC3)[nH]c2c1", "activity, negative = inhibition": "inactive: -6.55%"},
      {"smiles": "N#C/C(=C\\c1ccc(Cl)cc1)c1nc2ncccc2[nH]1", "Potency": "inconclusive: 15.8 µM [inhibitor, partial curve]"},
      {"smiles": "Cc1ccc(N2C(=O)CSC23C(=O)N(CC(=O)Nc2ccc(C)cc2C)c2ccccc23)cc1", "note": "(centres undefined)", "activity, negative = inhibition": "inactive: -9.85%"},
      {"smiles": "Cc1ccc(NC(=O)CCCN2C(=O)COc3ccc(C)cc32)c(C)c1", "activity, negative = inhibition": "inactive: -8.16%"},
      {"smiles": "CC(C)N1CC=C2C(C#N)=C(N)C(C#N)(C#N)C(c3ccccc3)C2C1", "note": "(centres undefined)", "Potency": "inconclusive: 28.2 µM [inhibitor, partial curve]"},
      {"smiles": "Cc1ccc2nc(SCC(=O)N3CCN(C(=O)c4ccco4)CC3)[nH]c2c1", "activity, negative = inhibition": "inactive: 5.35%"},
      {"smiles": "COC(=O)c1c(C)[nH]c(O)c1C=Nc1ccc(C(C)C)cc1", "Potency": "inconclusive: 14.1 µM [inhibitor, partial curve]"},
      {"smiles": "Cc1ccc(S(=O)(=O)N2CCOCC2)cc1NC(=O)COC(=O)CNC(=O)c1ccccc1", "activity, negative = inhibition": "inactive: -3.81%"},
      {"smiles": "O=C(CSc1nc2ncc(Br)cc2[nH]1)c1ccc([N+](=O)[O-])cc1", "Potency": "active: 28.2 µM"},
      {"smiles": "Nc1c(C(=O)NCc2ccccc2)sc2nc(N3CCOCC3)c3c(c12)CCCC3", "Potency": "inconclusive: 11.2 µM [inhibitor, partial curve]"},
      {"smiles": "O=C(NCCc1c[nH]c2ccccc12)c1ccc([N+](=O)[O-])cc1", "Potency": "inconclusive: 8.91 µM [inhibitor, partial curve]"},
      {"smiles": "Cc1ccc(C(=O)N2CCN=C2SCc2ccc([N+](=O)[O-])cc2)cc1", "Potency": "inconclusive: 28.2 µM [inhibitor, partial curve]"},
      {"smiles": "CC(C)C1Cc2[nH]c(=O)c(C(=O)O)cc2CO1", "note": "(centres undefined)", "activity, negative = inhibition": "inactive: -5.95%"},
      {"smiles": "Cc1cc(C)cc(NC(=S)N=Nc2c(O)n(C)c3ccc(S(=O)(=O)N4CCOCC4)cc23)c1", "Potency": "inconclusive: 17.8 µM [inhibitor, partial curve, poor fit]"}
    ]}
  ]
}
